Data taken from patent US20250188167A1.

Target: human B7-H3 (human), Q5ZPR3
Assay: cell-based or functional assay

Chain of human B7-H3 (human), Q5ZPR3 (Q5ZPR3 29-534): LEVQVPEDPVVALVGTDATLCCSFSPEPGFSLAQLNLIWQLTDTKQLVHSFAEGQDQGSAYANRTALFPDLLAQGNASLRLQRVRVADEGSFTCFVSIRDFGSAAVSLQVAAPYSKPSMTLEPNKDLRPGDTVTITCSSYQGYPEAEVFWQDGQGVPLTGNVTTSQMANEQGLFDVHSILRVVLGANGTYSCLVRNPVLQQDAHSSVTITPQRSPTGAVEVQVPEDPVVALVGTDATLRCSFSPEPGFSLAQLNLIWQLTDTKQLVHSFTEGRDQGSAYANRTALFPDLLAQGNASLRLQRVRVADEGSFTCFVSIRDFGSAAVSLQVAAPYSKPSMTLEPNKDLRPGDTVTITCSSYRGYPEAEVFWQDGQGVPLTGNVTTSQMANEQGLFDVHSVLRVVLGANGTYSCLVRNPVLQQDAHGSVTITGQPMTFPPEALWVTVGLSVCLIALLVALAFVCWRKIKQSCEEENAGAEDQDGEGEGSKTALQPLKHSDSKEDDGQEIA

ADCC % Relative activity (EC50 of positive control MGA-271 / EC50 of sample), plate 02: 1530%
ADCC EC50 (% target cell lysis, LDH; NK92/CD16a-VV effector cells), plate 02: 0.00289 µg/mL
CDC % Relative activity (EC50 of positive control DS-5573a / EC50 of sample): 165%
CDC EC50 (% target cell lysis, Cell Titer-Glo): 0.418 µg/mL
B1: 47F3F10B4-hIgG1 (antibody)
heavy: EVQLQQSGPELVKPGASVKMSCKASGYTFTDHYMHWVKQSHGKSLEWIGYIFPNNGVSGYNQNFKDKATLTVDKSSSTAYMDLRSLTPEDSAVYYCTRRQLGLGTMDYWGQGTSVTVSS[human IgG1 constant region omitted]
light: DIVLTQSPASLAVSLGQRATISCRASKSVSTSGYNYMHWYQQKPGQPPKLLIYLASNLESGVPARFSGSGSGTDFTLNIHPVEEEDAATYYCQHSKELPWTFGGGTKLEIKRTVAAPSVFIFPPSDEQLKSGTASVVCLLNNFYPREAKVQWKVDNALQSGNSQESVTEQDSKDSTYSLSSTLTLSKADYEKHKVYACEVTHQGLSSPVTKSFNRGEC
